# According to PubChem BioAssay AID1030 (National Center for Advancing Translational Sciences (NCATS), 2008):
# In all, about 220,000 compounds went through this assay and about 16,000 (7.3%) were called active. Inconclusive means that the source gave no clear call. Such entries were picked first, then a sample of the others. Calls follow the shape of the dose curve; as a rule, active = well fitted inhibition curve with a large enough effect (not every such curve was filed as active); inconclusive = small, poorly fitted or top-dose-only effect, or another doubt; inactive = no such curve, though single readings can be large or run the other way. Potencies of inconclusive entries are left out as doubtful fits.
# Molecular target: Aldehyde dehydrogenase 1A1 (Homo sapiens) (UniProt P00352)
# Sequence of UniProt P00352 (P00352 whole entry, looked up): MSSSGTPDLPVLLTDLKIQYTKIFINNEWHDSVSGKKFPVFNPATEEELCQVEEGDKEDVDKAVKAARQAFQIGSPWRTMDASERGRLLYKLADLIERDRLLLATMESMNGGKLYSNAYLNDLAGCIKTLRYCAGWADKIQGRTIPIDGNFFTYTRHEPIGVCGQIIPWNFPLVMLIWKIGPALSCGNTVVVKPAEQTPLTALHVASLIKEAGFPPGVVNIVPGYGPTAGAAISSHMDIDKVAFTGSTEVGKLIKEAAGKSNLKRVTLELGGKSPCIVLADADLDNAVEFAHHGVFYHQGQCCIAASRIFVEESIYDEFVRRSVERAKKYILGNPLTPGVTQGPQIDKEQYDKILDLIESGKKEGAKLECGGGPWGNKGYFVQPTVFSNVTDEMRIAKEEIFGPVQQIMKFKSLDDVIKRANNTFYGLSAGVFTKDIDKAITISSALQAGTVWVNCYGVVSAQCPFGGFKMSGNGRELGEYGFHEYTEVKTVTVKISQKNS
# Assay: qHTS Assay for Inhibitors of Aldehyde Dehydrogenase 1 (ALDH1A1)
# Details: Purified ALDH1A1, NADH fluorescence, propionaldehyde substrate; series mostly up to 75.3 µM
# Potency is read from the fitted curve at half-maximal effect; tags tell the direction and shape of the fitted curve.
row,SMILES,Potency
1,CNC(=O)CSc1nc2nc(C)cc(C)n2n1,inactive
2,O=C(NCc1nnc(SC/C=C/c2ccccc2)o1)c1ccco1,"inconclusive [inhibitor, single point]"
3,Cc1ccccc1-n1c(=O)c2ccccc2n2c(=O)[nH]nc12,inactive
4,COc1ccc(S(=O)(=O)N2CCC(C(=O)N3CCCCCC3)CC2)cc1,"inconclusive [inhibitor, partial curve]"
5,CNC(=O)COC(=O)c1cc(SC)ccc1Cl,inactive
6,CCc1cccc(CC)c1NC(=O)COC(=O)c1cccc(-c2ccc(OC(C)=O)cc2)c1,inactive
7,CCOC(=O)c1c(NC(=O)c2nn(CC)cc2Br)sc2c1CCCCC2,"inconclusive [inhibitor, partial curve]"
8,O=C(c1ccc(=O)oc1)N1CCCc2ccccc21,active: 10 µM
9,CCN(CC)c1ccc(NC(=O)Nc2cccc(C(C)=O)c2)cc1,"inconclusive [inhibitor, partial curve]"
10,COc1ccc(-c2cc3nc(-c4ccccc4)cc(N4CCCC(O)C4)n3n2)cc1 (centres undefined),"inconclusive [inhibitor, partial curve]"
11,c1nnc(NC2=NCCC2)s1,inactive
12,O=C(O)c1ccc2cccc(Cl)c2c1O,"inconclusive [inhibitor, single point]"
13,CN(Cc1ccco1)c1cc(-c2cccc(NS(C)(=O)=O)c2)ncn1,"inconclusive [inhibitor, partial curve]"
14,COc1cc(CNc2ccc3[nH]c(=O)[nH]c3c2)cc(Br)c1OCC(=O)NC(C)(C)C,active: 0.316 µM
15,CC1=C(C(=O)Nc2ccccc2)C(c2ccco2)C(C#N)=C(SCc2ccccc2)N1 (centres undefined),"inconclusive [inhibitor, partial curve]"
16,O=C(CN1C(=O)NC2(CCCCC2)C1=O)N1CCN(S(=O)(=O)c2ccccc2)CC1,inactive
17,NC/C=C/C(=O)O,inactive
18,COc1ccc(-c2ncc3ccccn23)cc1OC,"inconclusive [inhibitor, partial curve]"
19,CCOc1ccc(N=Nc2c(C)noc2C)cc1,inactive
20,COc1cc(C(=O)Nc2cnc(NC(=O)C(C)C)cc2C)cc(OC)c1OC,inactive
21,COc1ccc2c(c1)CC/C2=N\OC(=O)c1ccccc1C,"inconclusive [inhibitor, single point]"
22,CCOC(=O)/C=C/C(=O)Nc1ccc(S(=O)(=O)N(C)c2ccccc2)cc1,active: 25.1 µM
23,Cc1ccccc1C(O)c1ccccn1 (centres undefined),inactive
24,COCCn1cnc2c1c(=O)n(CC(=O)OCC#N)c(=O)n2Cc1ccccc1,"inconclusive [inhibitor, single point]"
